Laboratory results from the supplement of paper PMC10126150.
Values marked as one replicate rest on one cluster of the flow cell; about a third of the high ones do not repeat.

Tested on: ATP
Assay: switch fluorescence ratio, 500 uM ATP over buffer (Cy3 cluster intensity, sum of 5 cycles each) (fold (ratio)); higher = stronger signal-on switching upon ATP binding; sequences stand for … in TCGTCGGCAGCGTCAGATGTGTATAAGAGACAGTTTTTTTTTTTTTTTTTTTTTTTTT…TC
Details: aptamer strand: ATP DNA aptamer (quencher-CACCTGGGGGAGTATTGCGGAGGAAGG + anchor), 100 nM annealed; ATP concentration: 500 uM; one replicate
How it was run: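 Between each of five buffer/ATP cycles, the flow-cell was stripped with NaOH and re-annealed. Each cycle imaged Cy3-labelled switching-strand clusters, annealed to 100 nM quencher-labelled ATP aptamer on a modified Illumina MiSeq flow-cell, first in selection buffer and then after 15 min with 500 uM ATP at 22 °C. The fluorescence ratio is summed target-cycle over summed buffer-cycle Cy3 intensity per cluster, averaged per switch-domain sequence, with clusters outside 100-1000 RFU excluded.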
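Note: ATP exposure 15 min at 22 °C before imaging.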

**Q.** With ATTATATAAA as the sequence, how does the switch fluorescence ratio read?
**A.** 0.98

**Q.** For ATTATCGAGC, which switch fluorescence ratio is on record?
**A.** 0.983

**Q.** With ATTATGGAA as the sequence, how does the switch fluorescence ratio read?
**A.** 0.995

**Q.** For ATTATGGGG, which switch fluorescence ratio is on record?
**A.** 0.955

**Q.** For ATTATGGTAG, which switch fluorescence ratio is on record?
**A.** 1.01

**Q.** With ATTATTTACG as the sequence, how does the switch fluorescence ratio read?
**A.** 1.03

**Q.** Which switch fluorescence ratio does the source give for ATTATTTCCA here?
**A.** 1.02

**Q.** How did the switch fluorescence ratio turn out when ATTCAACAGA was run?
**A.** 0.957

**Q.** For ATTCATATG, which switch fluorescence ratio is on record?
**A.** 1.03

**Q.** ATTCATATTA was tested. Which switch fluorescence ratio did it give?
**A.** 1.02

**Q.** How did the switch fluorescence ratio turn out when ATTCATGAA was run?
**A.** 1.02

**Q.** Which switch fluorescence ratio does the source give for ATTCATGGC here?
**A.** 0.989

**Q.** ATTCATTCCG was tested. Which switch fluorescence ratio did it give?
**A.** 1.07

**Q.** With ATTCATTTAT as the sequence, how does the switch fluorescence ratio read?
**A.** 0.995

**Q.** ATTCCAGAAT was tested. Which switch fluorescence ratio did it give?
**A.** 0.977

**Q.** For ATTCCAGATG, which switch fluorescence ratio is on record?
**A.** 1.05

**Q.** Which switch fluorescence ratio does the source give for ATTCCATCCG here?
**A.** 1.42

**Q.** With ATTCCCGACC as the sequence, how does the switch fluorescence ratio read?
**A.** 1.2

**Q.** Which switch fluorescence ratio does the source give for ATTCCTGCTC here?
**A.** 1.08

**Q.** How did the switch fluorescence ratio turn out when ATTCGAAAGA was run?
**A.** 1.02

**Q.** ATTCGATACC was tested. Which switch fluorescence ratio did it give?
**A.** 1.02

**Q.** Which switch fluorescence ratio does the source give for ATTCGGGAGT here?
**A.** 0.993

**Q.** How did the switch fluorescence ratio turn out when ATTCGTCGTA was run?
**A.** 1

**Q.** Which switch fluorescence ratio does the source give for ATTCTAATCT here?
**A.** 0.977

**Q.** How did the switch fluorescence ratio turn out when ATTCTACATC was run?
**A.** 1.02

**Q.** Which switch fluorescence ratio does the source give for ATTCTATCAA here?
**A.** 0.975

**Q.** Which switch fluorescence ratio does the source give for ATTCTCCC here?
**A.** 1.1

**Q.** ATTCTCTTCG was tested. Which switch fluorescence ratio did it give?
**A.** 1.06

**Q.** ATTCTGAGTT was tested. Which switch fluorescence ratio did it give?
**A.** 0.995

**Q.** With ATTCTGGCTT as the sequence, how does the switch fluorescence ratio read?
**A.** 0.972

**Q.** How did the switch fluorescence ratio turn out when ATTCTGTCAG was run?
**A.** 0.997

**Q.** For ATTCTTACGC, which switch fluorescence ratio is on record?
**A.** 0.968

**Q.** Which switch fluorescence ratio does the source give for ATTCTTCAGG here?
**A.** 1.05

**Q.** With ATTCTTCCGA as the sequence, how does the switch fluorescence ratio read?
**A.** 1.83

**Q.** Which switch fluorescence ratio does the source give for ATTGACAGA here?
**A.** 0.979

**Q.** For ATTGAGACTT, which switch fluorescence ratio is on record?
**A.** 1.04

**Q.** ATTGAGAGGC was tested. Which switch fluorescence ratio did it give?
**A.** 0.992

**Q.** How did the switch fluorescence ratio turn out when ATTGAGCAG was run?
**A.** 1.02

**Q.** How did the switch fluorescence ratio turn out when ATTGCATGGC was run?
**A.** 1.05

**Q.** With ATTGCCGCGT as the sequence, how does the switch fluorescence ratio read?
**A.** 1

**Q.** How did the switch fluorescence ratio turn out when ATTGCCGTAT was run?
**A.** 0.972

**Q.** Which switch fluorescence ratio does the source give for ATTGCGCGTA here?
**A.** 1.06

**Q.** How did the switch fluorescence ratio turn out when ATTGCGGTTG was run?
**A.** 1

**Q.** ATTGCGTCAA was tested. Which switch fluorescence ratio did it give?
**A.** 0.959

**Q.** With ATTGCTACAA as the sequence, how does the switch fluorescence ratio read?
**A.** 1.01

**Q.** For ATTGCTAGTG, which switch fluorescence ratio is on record?
**A.** 0.965

**Q.** ATTGCTGGG was tested. Which switch fluorescence ratio did it give?
**A.** 1.03

**Q.** For ATTGCTTATA, which switch fluorescence ratio is on record?
**A.** 1.02

**Q.** Which switch fluorescence ratio does the source give for ATTGGACATT here?
**A.** 1.02

**Q.** How did the switch fluorescence ratio turn out when ATTGGATGTA was run?
**A.** 1.01

**Q.** How did the switch fluorescence ratio turn out when ATTGGCGAA was run?
**A.** 0.991

**Q.** For ATTGGCGTAC, which switch fluorescence ratio is on record?
**A.** 1.04

**Q.** ATTGGGATCT was tested. Which switch fluorescence ratio did it give?
**A.** 0.964

**Q.** With ATTGGGCAGA as the sequence, how does the switch fluorescence ratio read?
**A.** 1

**Q.** ATTGGGCTGA was tested. Which switch fluorescence ratio did it give?
**A.** 1.01

**Q.** How did the switch fluorescence ratio turn out when ATTGGGTTT was run?
**A.** 0.987

**Q.** For ATTGGTATCC, which switch fluorescence ratio is on record?
**A.** 0.978

**Q.** With ATTGGTGAGT as the sequence, how does the switch fluorescence ratio read?
**A.** 1.02

**Q.** For ATTGGTGGCC, which switch fluorescence ratio is on record?
**A.** 0.976

**Q.** ATTGGTTGCT was tested. Which switch fluorescence ratio did it give?
**A.** 0.994

**Q.** With ATTGTAAGG as the sequence, how does the switch fluorescence ratio read?
**A.** 0.981

**Q.** Which switch fluorescence ratio does the source give for ATTGTAGGGG here?
**A.** 1.02

**Q.** ATTGTCCGAC was tested. Which switch fluorescence ratio did it give?
**A.** 1.02

**Q.** ATTGTGCCCT was tested. Which switch fluorescence ratio did it give?
**A.** 0.988

**Q.** For ATTGTGCGCT, which switch fluorescence ratio is on record?
**A.** 1.04

**Q.** For ATTGTGTGTT, which switch fluorescence ratio is on record?
**A.** 1

**Q.** With ATTGTTAAGT as the sequence, how does the switch fluorescence ratio read?
**A.** 0.944

**Q.** For ATTGTTCCGG, which switch fluorescence ratio is on record?
**A.** 1.02

**Q.** Which switch fluorescence ratio does the source give for ATTGTTTCCA here?
**A.** 1.01

**Q.** Which switch fluorescence ratio does the source give for ATTGTTTGAC here?
**A.** 1.05

**Q.** ATTTAATCT was tested. Which switch fluorescence ratio did it give?
**A.** 0.964

**Q.** With ATTTAATGAT as the sequence, how does the switch fluorescence ratio read?
**A.** 1.02

**Q.** How did the switch fluorescence ratio turn out when ATTTAGACGG was run?
**A.** 1.04

**Q.** How did the switch fluorescence ratio turn out when ATTTAGAGAG was run?
**A.** 1.01

**Q.** For ATTTAGAGCT, which switch fluorescence ratio is on record?
**A.** 1.22

**Q.** For ATTTAGCTGC, which switch fluorescence ratio is on record?
**A.** 1.03

**Q.** How did the switch fluorescence ratio turn out when ATTTAGGATC was run?
**A.** 0.996

**Q.** For ATTTATAAAC, which switch fluorescence ratio is on record?
**A.** 0.966

**Q.** How did the switch fluorescence ratio turn out when ATTTATAAGG was run?
**A.** 0.996

**Q.** ATTTCACCTG was tested. Which switch fluorescence ratio did it give?
**A.** 1.03

**Q.** Which switch fluorescence ratio does the source give for ATTTCAGACG here?
**A.** 1.03

**Q.** For ATTTCCGTGT, which switch fluorescence ratio is on record?
**A.** 0.961

**Q.** ATTTCGAGGT was tested. Which switch fluorescence ratio did it give?
**A.** 1.01

**Q.** For ATTTCGCAAT, which switch fluorescence ratio is on record?
**A.** 2.34

**Q.** For ATTTCGGATC, which switch fluorescence ratio is on record?
**A.** 1.05

**Q.** With ATTTCGGTTT as the sequence, how does the switch fluorescence ratio read?
**A.** 0.965

**Q.** How did the switch fluorescence ratio turn out when ATTTCGTTCT was run?
**A.** 0.973

**Q.** Which switch fluorescence ratio does the source give for ATTTCTATGT here?
**A.** 0.983

**Q.** ATTTCTCCAT was tested. Which switch fluorescence ratio did it give?
**A.** 0.991

**Q.** For ATTTCTCGTA, which switch fluorescence ratio is on record?
**A.** 0.963

**Q.** ATTTCTTGCT was tested. Which switch fluorescence ratio did it give?
**A.** 0.949

**Q.** Which switch fluorescence ratio does the source give for ATTTGAAAGA here?
**A.** 0.967

**Q.** Which switch fluorescence ratio does the source give for ATTTGAACTA here?
**A.** 0.985

**Q.** How did the switch fluorescence ratio turn out when ATTTGAGCCC was run?
**A.** 1.01

**Q.** ATTTGAGGAG was tested. Which switch fluorescence ratio did it give?
**A.** 1

**Q.** ATTTGATGGA was tested. Which switch fluorescence ratio did it give?
**A.** 1.05

**Q.** With ATTTGATTTA as the sequence, how does the switch fluorescence ratio read?
**A.** 0.989

**Q.** For ATTTGCCACG, which switch fluorescence ratio is on record?
**A.** 1.05

**Q.** With ATTTGCCTAT as the sequence, how does the switch fluorescence ratio read?
**A.** 0.954

**Q.** For ATTTGCTCTA, which switch fluorescence ratio is on record?
**A.** 0.988

**Q.** How did the switch fluorescence ratio turn out when ATTTGGCCTC was run?
**A.** 0.967
